# Results from PubChem BioAssay AID1671193 (National Center for Advancing Translational Sciences (NCATS), 2021).
# Hit rate of the full screen: of about 150,000 compounds, about 180 (0.12%) were called active. Inconclusive results, whose numbers are uncertain, are shown with a selection of clear calls. The call rests on the fitted dose curve; in most records, active means well fitted cell-killing curve with a large enough effect; inconclusive means small, poorly fitted or top-dose-only effect, or effect the other way; inactive means flat fitted curve, though single readings scatter. Where the call is inconclusive, the potency comes from a doubtful curve fit.
# Test: GF-AFC viability counterscreen for inhibitors of alpha-synuclein gene (SNCA) expression; further: nearly all actives have a fitted effect of over 30% in size;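 on activity change, negative = cytotoxicity: 0% = DMSO-treated cells and -100% = medium-only wells without cells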
# Settings: HEK-293-SNCA-luc viability, GF-AFC fluorescence, 24 h; activity change, negative = cytotoxicity: at 57.1 µM (top of the series) unless noted
# Summary of the method: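 HEK-293-SNCA-luc cells (1500/well) plated 24 h, then exposed 24 h to a dilution series; GF-AFC added 30 min at 37C, fluorescence 405/540 nm; normalised to medium-only and DMSO wells, Hill fit.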
# Potency means the concentration at half of the fitted maximal effect; tags describe the fitted curve by direction and shape.
Compound,Potency,"activity change, negative = cytotoxicity"
COc1ccc(NC(=O)C2CCCN(S(=O)(=O)c3c(C)[nH]c(=O)[nH]c3=O)C2)cc1 (stereo not given),"inconclusive: 10 µM [cytotoxic, partial curve, poor fit]",
N#Cc1cccc(S(=O)(=O)N2CC(C(=O)NC3CCCCC3)C3(CCOCC3)C2)c1 (stereo not given),"inconclusive: 10 µM [cytotoxic, partial curve]",
O=c1c(CCc2ccccc2)nc2cncnc2n1Cc1ccccc1Cl,"inconclusive: 4.47 µM [cytotoxic, partial curve, poor fit]",
COc1ccc(C(=O)N2CCC[C@H]2c2nc(-c3ccc(C)cc3)no2)cn1,"inconclusive: 3.16 µM [cytotoxic, full curve, poor fit]",
O=C(NC1(c2ccccc2)CC1)c1c(CN2CCC(N3CCCCC3)CC2)c(-c2cccc(C(F)(F)F)c2)nc2cc(Br)ccc12,"inconclusive: 21.2 µM [cytotoxic, single point]",
Cc1cccn2c(=O)c3cc(C#N)c(=O)n(-c4nnc(SCc5ccc(F)cc5)s4)c3nc12,"inconclusive: 31.6 µM [rising, single point]",
Nc1nc(NCCNc2ncc(-n3ccnc3)c(-c3ccc(Cl)cc3Cl)n2)ccc1[N+](=O)[O-],"inconclusive: 16.8 µM [cytotoxic, partial curve, poor fit]",
N#Cc1ccc(CN2CCC3(CC2)CCN(S(=O)(=O)c2ccccc2)CC3)cc1,"inconclusive: 20 µM [cytotoxic, partial curve]",
CCOc1ccc(NC(=O)CCc2c(C)nc3nc(-c4cc(OC)cc(OC)c4)nn3c2C)cc1,"inconclusive: 6.31 µM [rising, partial curve, poor fit]",
O=C(c1ccc(Cl)nc1)N1CCC(N2CCCNC2=O)CC1,"inconclusive: 14.1 µM [rising, partial curve, poor fit]",
Cc1ccc(N2CCN(Cc3nnc(-c4ccccc4F)o3)CC2)c(C)c1,"inconclusive: 1.78 µM [cytotoxic, full curve, poor fit]",
COC(=O)c1ccc2c(=O)n(CCc3ccc(S(N)(=O)=O)cc3)c(SCC(=O)C(C)(C)C)nc2c1,"inconclusive: 6.31 µM [cytotoxic, full curve]",
COc1cccc(C(=O)N2CCC3(CC2)CCC(O)(CN(C)C)CC3)c1,,inactive: -1.74%
Cc1ccc(-n2nc(C)c([C@@H]3C=C[C@@H](NS(=O)(=O)c4cccs4)C3)c2C)cc1Cl,"inconclusive: 39.8 µM [cytotoxic, single point]",
COc1ccc(OC)c(NC(=O)Cn2c(-c3ccc(F)cc3)nc(C)c(CCO)c2=O)c1,,inactive: 11.9%
